Source: article PMC10040812
These are yes or no findings as the source states them, for the method shown. Binding seen in cells or lysates may run through a third protein. Some entries that bind do so weakly or less than the wild type.

Sequences of proteins named here, by UniProt entry; tags and fusion partners are left off.
UniProt Q5SNZ0: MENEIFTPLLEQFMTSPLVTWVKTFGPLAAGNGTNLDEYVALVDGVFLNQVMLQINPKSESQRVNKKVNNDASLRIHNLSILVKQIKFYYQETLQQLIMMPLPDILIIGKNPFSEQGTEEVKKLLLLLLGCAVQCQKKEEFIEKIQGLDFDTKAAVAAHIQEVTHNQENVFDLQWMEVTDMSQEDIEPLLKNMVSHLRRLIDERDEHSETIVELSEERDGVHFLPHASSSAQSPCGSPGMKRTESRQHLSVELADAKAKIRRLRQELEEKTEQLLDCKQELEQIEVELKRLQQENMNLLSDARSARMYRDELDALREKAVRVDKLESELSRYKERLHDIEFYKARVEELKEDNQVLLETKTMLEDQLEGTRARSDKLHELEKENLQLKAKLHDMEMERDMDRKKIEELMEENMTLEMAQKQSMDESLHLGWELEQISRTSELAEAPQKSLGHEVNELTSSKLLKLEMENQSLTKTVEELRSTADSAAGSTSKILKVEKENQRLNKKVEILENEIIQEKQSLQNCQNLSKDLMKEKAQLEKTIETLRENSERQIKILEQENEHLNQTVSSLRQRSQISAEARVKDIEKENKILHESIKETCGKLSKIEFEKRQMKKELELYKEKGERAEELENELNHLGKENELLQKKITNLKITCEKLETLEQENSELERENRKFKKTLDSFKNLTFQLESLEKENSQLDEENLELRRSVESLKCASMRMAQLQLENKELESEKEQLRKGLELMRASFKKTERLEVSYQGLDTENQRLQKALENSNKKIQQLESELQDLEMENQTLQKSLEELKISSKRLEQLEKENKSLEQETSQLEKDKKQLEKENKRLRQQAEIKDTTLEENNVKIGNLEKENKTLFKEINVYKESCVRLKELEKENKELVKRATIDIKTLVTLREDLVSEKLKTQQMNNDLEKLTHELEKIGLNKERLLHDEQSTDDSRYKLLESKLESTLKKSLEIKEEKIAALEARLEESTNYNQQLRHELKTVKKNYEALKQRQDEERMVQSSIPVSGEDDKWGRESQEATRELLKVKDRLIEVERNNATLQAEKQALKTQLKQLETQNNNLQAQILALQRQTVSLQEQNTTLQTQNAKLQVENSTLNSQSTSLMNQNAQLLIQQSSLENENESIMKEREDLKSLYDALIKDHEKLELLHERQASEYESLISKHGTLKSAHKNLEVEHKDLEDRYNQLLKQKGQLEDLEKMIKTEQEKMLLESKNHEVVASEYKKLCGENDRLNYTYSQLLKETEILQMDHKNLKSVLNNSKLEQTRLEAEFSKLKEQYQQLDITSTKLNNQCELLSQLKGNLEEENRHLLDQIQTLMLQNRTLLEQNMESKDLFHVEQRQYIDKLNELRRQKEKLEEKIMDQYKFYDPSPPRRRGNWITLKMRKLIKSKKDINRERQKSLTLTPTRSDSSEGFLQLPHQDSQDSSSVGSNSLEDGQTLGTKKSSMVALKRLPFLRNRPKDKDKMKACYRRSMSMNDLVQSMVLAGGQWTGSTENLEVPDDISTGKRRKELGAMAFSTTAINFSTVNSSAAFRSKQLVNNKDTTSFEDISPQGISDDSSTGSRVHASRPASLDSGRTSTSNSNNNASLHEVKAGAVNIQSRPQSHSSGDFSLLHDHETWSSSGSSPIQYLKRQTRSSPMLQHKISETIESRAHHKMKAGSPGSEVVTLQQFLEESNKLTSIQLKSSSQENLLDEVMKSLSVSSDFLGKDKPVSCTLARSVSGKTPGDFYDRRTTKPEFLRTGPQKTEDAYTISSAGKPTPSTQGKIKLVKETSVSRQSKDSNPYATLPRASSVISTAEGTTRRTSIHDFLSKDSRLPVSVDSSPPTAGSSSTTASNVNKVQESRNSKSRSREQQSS
UniProt P39688: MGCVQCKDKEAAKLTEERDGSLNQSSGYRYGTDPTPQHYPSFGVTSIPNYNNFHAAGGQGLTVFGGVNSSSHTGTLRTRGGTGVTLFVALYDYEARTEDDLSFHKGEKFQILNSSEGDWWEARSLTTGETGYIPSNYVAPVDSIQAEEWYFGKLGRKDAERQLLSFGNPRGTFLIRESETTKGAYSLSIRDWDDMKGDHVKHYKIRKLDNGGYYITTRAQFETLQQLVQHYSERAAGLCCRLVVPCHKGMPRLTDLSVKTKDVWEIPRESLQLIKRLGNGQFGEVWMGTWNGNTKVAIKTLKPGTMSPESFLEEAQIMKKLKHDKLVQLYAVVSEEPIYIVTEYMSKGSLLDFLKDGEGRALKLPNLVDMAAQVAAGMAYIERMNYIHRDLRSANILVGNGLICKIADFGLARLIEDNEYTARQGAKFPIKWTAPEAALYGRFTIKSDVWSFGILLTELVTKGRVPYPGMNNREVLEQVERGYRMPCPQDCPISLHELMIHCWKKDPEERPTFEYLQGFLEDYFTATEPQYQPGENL
UniProt P06240: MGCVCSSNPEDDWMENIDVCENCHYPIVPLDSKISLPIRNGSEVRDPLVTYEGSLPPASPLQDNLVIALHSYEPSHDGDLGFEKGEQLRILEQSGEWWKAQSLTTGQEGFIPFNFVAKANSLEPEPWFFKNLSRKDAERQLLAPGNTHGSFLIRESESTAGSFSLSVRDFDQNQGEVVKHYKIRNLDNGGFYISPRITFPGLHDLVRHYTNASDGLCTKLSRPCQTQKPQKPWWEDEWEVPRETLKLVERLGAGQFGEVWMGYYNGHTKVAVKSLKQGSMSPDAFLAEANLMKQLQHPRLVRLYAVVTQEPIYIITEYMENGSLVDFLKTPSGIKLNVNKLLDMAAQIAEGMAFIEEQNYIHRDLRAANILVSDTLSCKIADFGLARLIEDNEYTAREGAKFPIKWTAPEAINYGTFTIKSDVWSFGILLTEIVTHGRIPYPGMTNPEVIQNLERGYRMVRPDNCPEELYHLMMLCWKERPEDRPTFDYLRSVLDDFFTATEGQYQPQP
UniProt P25911: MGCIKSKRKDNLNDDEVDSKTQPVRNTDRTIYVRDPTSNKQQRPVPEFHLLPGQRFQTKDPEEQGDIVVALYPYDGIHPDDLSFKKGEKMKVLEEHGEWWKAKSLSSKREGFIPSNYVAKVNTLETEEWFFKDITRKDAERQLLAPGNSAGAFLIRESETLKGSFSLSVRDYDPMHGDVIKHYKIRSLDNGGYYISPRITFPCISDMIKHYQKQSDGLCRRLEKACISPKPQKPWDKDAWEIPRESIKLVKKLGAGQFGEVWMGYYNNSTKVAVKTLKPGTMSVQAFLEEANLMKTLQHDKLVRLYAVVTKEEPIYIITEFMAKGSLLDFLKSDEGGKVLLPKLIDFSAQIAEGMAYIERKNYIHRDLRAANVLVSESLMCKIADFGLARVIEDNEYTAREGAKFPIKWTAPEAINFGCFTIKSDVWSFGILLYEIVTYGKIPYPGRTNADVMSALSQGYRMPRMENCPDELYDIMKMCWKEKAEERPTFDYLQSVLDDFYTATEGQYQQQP

Experiments:
[1] = biological target: T1, Nephrin (mouse (endogenous in MIN6 and mouse islets)) (UniProt Q9QZS7); assay: co-IP; immunoprecipitation with anti-Nephrin antibody or control IgG from lysate (1 mg) of control (Ctrl-shRNA) MIN6 cells; blots with the indicated antibodies
T1 sequence: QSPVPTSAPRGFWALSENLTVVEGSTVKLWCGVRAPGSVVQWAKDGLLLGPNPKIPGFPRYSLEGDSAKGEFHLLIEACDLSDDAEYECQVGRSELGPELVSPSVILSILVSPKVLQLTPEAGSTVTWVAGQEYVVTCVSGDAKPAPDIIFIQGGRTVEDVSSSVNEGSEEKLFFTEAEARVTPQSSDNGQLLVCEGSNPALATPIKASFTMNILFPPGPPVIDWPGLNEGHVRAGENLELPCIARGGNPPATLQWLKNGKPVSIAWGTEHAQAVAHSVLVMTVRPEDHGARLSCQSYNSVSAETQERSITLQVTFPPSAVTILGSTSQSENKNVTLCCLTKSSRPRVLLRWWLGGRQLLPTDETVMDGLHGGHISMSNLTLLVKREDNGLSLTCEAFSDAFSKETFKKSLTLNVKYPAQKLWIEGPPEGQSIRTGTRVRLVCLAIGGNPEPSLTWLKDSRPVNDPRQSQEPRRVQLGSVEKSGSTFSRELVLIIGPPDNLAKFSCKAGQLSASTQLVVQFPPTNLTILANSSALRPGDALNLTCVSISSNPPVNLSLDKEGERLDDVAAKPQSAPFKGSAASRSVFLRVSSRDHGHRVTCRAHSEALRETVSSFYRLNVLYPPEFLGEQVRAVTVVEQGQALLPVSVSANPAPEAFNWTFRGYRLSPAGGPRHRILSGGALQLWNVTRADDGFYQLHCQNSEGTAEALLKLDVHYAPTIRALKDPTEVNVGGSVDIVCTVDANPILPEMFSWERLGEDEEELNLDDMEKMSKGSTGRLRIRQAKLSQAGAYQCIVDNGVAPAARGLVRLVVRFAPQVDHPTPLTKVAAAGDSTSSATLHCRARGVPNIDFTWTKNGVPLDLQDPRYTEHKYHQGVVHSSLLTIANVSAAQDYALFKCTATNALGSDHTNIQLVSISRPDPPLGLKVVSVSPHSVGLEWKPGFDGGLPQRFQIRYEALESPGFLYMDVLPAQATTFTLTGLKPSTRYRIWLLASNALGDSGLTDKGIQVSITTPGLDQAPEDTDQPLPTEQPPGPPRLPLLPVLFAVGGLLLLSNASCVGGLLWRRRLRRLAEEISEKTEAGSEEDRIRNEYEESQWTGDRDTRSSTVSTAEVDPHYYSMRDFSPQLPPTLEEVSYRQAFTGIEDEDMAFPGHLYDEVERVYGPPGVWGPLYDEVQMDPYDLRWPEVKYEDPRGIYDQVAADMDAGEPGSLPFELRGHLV

[2] = biological target: GIV protein (Girdin) (mouse (endogenous in MIN6 and mouse islets)) (UniProt Q5SNZ0); assay: co-IP; immunoprecipitation with anti-GIV antibody or control IgG and Protein G-Sepharose from MIN6 cell lysate (20 mM Tris-HCl pH 7.5, 150 mM NaCl, 1 mM MgCl2, 1% Triton X-100); blot with anti-Nephrin; low and high glucose compared (Fig. S2B)
[3] = biological target: GIV protein (Girdin) (mouse (endogenous in MIN6 and mouse islets)) (UniProt Q5SNZ0); assay: co-IP; immunoprecipitation from mouse pancreatic islet lysate (20 mM Tris-HCl pH 7.5, 150 mM NaCl, 1 mM MgCl2, 1% Triton X-100), Protein G-Sepharose; blot with anti-GIV and anti-Nephrin

Molecule: Fyn (from UniProt P39688 1-537) (enzyme)
- binding [1]: no binding

Molecule: GIV protein (Girdin) (from UniProt Q5SNZ0 1-1873)
- binding [1]: binds

Molecule: Lck (from UniProt P06240 1-509) (enzyme)
- binding [1]: no binding

Molecule: Lyn (from UniProt P25911 1-512) (enzyme)
- binding [1]: no binding

B1: Nephrin (protein, UniProt Q9QZS7 37-1256)
chain: T1 sequence
- binding [2]: binds
- binding [3]: binds
